± gives the standard deviation of the averaged measurements. The list shows a part of the results.

The assay deals with PfAP2-I AP2 domain 3 (GST-tagged). Kind of assay: gcPBM binding intensity (ln(normalized median fluorescence intensity)); higher = stronger DNA binding. The method, boiled down:
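GST-tagged P. falciparum DNA-binding domains produced in E. coli were incubated for 1 h on an Agilent 4 × 180k array of primer-extended double-stranded 36-bp intergenic genomic probes with negative controls. Binding intensity is the highest Masliner-normalised natural-log median intensity across replicate spots of either probe orientation, with bound protein detected by Alexa488 anti-GST antibody at 488 nm.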
Regarding “ACAAAGTTTATAGAACGTACATACTTACACATATTT [XGTACX_site556]”, the “gcPBM binding intensity (ln)” value came to 7.61 ± 0.57.

As for “TTATTATATATATCTCGTACGTGTATACGCCTACCA [XGTACX_site8375]”, the “gcPBM binding intensity (ln)” value amounted to 7.76 ± 0.65.

For “TGTTATATTTCAAATTGTACTAATCTAATTAATAAA [XGTACX_site604]”, the “gcPBM binding intensity (ln)” value amounted to 7.62 ± 0.38.

In the case of “ATGGAATTTTTAGAATATGGATAATGTTACTTAAGT [CACACA_negctrl_site494]”, the “gcPBM binding intensity (ln)” value was 7.64 ± 0.64.

Consider “GTTATATATATATATATATATATATATATTTTTTTT [GTGCAC_negctrl_site597]”, for which the “gcPBM binding intensity (ln)” value is 8.29 ± 0.53.

“TATATCGTTAATTATACACACATAAAATTAAACTTT [CACACA_site1274]”: the “gcPBM binding intensity (ln)” value is 7.8 ± 0.43.

Regarding “AAAAACCATGGGCACACACACATAATATATAATATA [CACACA_site1425]”, the “gcPBM binding intensity (ln)” value amounted to 7.86 ± 0.45.

Turning to “AAATTAAAAAAGAATATACACACCAAAACTGTTTGT [CACACA_site958]”, the “gcPBM binding intensity (ln)” value was 7.49 ± 0.63.

With “TAAAAAAAGGAAAACATACAATTCTATTTTTCAATA [CACACA_negctrl_site474]”, the “gcPBM binding intensity (ln)” value was 7.18 ± 0.68.

Regarding “ACCATACATACATACACACACACACGCATATTTATA [CACACA_site7386]”, the “gcPBM binding intensity (ln)” value was 8.48 ± 0.49.

As for “TAATTTTAAATATCTTCACACATTATATTTTTATAT [CACACA_site5411]”, the “gcPBM binding intensity (ln)” value came to 7.785 ± 0.035.

On to “TATAATAATACTTATTGTACGATTAGCTTAATTCGT [XGTACX_site15]”, for which the “gcPBM binding intensity (ln)” value was 7.42 ± 0.52.

For the sequence “TATATAAATAGATACACACATACATACATACATACA [CACACA_site260]”, the “gcPBM binding intensity (ln)” value is 8.81 ± 0.54.

As to “AAGGGTTATTTGATATGTACTTATATATATATATAA [XGTACX_site1659]”, the “gcPBM binding intensity (ln)” value was found to be 7.91 ± 0.2.

In the case of “AAGGTGGAAACAATTACACACACACTAATAAAAAAA [CACACA_site9051]”, the “gcPBM binding intensity (ln)” value was found to be 8.08 ± 0.45.

Take “TTTTTTAAAAGAAAATAAAAAATAAGCATAATATGA [CACACA_negctrl_site1574]”: the “gcPBM binding intensity (ln)” value is 7.64 ± 0.51.

With “AAGTACAAATTTAATAAAAATGAAACAAATATGTAT [TGCATGCA_negctrl_site94]”, the “gcPBM binding intensity (ln)” value stood at 7.64 ± 0.69.

Take “TTCCAAAAAATTATTACACACATATGAGCACATATA [CACACA_site4543]”: the “gcPBM binding intensity (ln)” value is 7.96 ± 0.4.

“TATTAATTAAAAAAATGTACATAATTATAAATTTTT [XGTACX_site7994]”: the “gcPBM binding intensity (ln)” value came out at 7.5 ± 0.34.

In the case of “TACGGTTGTTTATTTTGTACGTAAAAAATATATTAT [XGTACX_site8393]”, the “gcPBM binding intensity (ln)” value worked out at 8.03 ± 0.28.

Regarding “TAATATACATATATATGTACATATATATATATATAT [XGTACX_site2684]”, the “gcPBM binding intensity (ln)” value came out at 9.09 ± 0.47.

Consider “AACAATTATTTGTCGACACACGTATATGTTATTTAG [CACACA_site5046]”, for which the “gcPBM binding intensity (ln)” value turned out to be 8.32 ± 0.64.

On to “ACCGTGGGAGGACACACACACACACCCACATATATA [CACACA_site4339]”, for which the “gcPBM binding intensity (ln)” value was determined as 8.04 ± 0.54.

Turning to “ATTTTTGTTATTACATGTACCCATAATTATTATTAA [XGTACX_site3558]”, the “gcPBM binding intensity (ln)” value was 8.58 ± 0.75.

As for “TATTTATATTCCTTTACACACTCCATCTTATATCCA [CACACA_site3604]”, the “gcPBM binding intensity (ln)” value worked out at 7.99 ± 0.76.

For “ACAAAAAAATGAAAAGAAAAAGATATACCCCAATAT [CACACA_negctrl_site509]”, the “gcPBM binding intensity (ln)” value was 8.43 ± 0.47.

For “ATATCCATAATAAAAACATGCAACAGAAAAAAAAAA [TGCATGCA_site497]”, the “gcPBM binding intensity (ln)” value came out at 8.11 ± 0.91.

As to “AAGAGAAATATATATTGTACAATAATTTTATTTGGT [XGTACX_site7642]”, the “gcPBM binding intensity (ln)” value worked out at 7.82 ± 0.35.

For the sequence “TATATATTAATATTTACACACATGCGCACCCATAAA [CACACA_site2410]”, the “gcPBM binding intensity (ln)” value is 9.86 ± 0.57.

As to “TATATAATTAAAATAACACACATATATAAAAATATA [CACACA_site2990]”, the “gcPBM binding intensity (ln)” value stood at 7.53 ± 0.46.

For “ATATTATAGTATATAACACACATTTTTCATAACACT [CACACA_site6331]”, the “gcPBM binding intensity (ln)” value stood at 7.86 ± 0.54.

On to “TGGCAAAATAGGCACACACACATATACATATATATT [CACACA_site1059]”, for which the “gcPBM binding intensity (ln)” value is 8.02 ± 0.42.

As for “GTATATATATTTCTTTAATAATTAAATTATAAATAT [CACACA_negctrl_site640]”, the “gcPBM binding intensity (ln)” value was 7.72 ± 0.43.

“AATATATAAACACGTACACACACATATATGTATATA [CACACA_site9168]”: the “gcPBM binding intensity (ln)” value was 8.28 ± 0.3.

Regarding “AATTTAAATATTTGTTGTACGTATTTATATATTCTT [XGTACX_site3623]”, the “gcPBM binding intensity (ln)” value came out at 7.89 ± 0.69.

For “TATTATATCTTATATGTATATTCCCACAAATTATAT [GTGCAC_negctrl_site362]”, the “gcPBM binding intensity (ln)” value stood at 7.63 ± 0.58.

Take “ATAATATATAAACACACACACATATATAAATACATT [CACACA_site4466]”: the “gcPBM binding intensity (ln)” value stood at 7.84 ± 0.35.

As to “CATGCCGTTAAATTATGTACTTATTATTTTAATATG [XGTACX_site4209]”, the “gcPBM binding intensity (ln)” value is 7.75 ± 0.19.

In the case of “TAAATTAAATATTATAAACACACATATATATTATTT [CACACA_site8189]”, the “gcPBM binding intensity (ln)” value is 7.49 ± 0.47.

For “TTAAAAAATTATTGTAGTACATAGGAAATGAAAAAA [XGTACX_site155]”, the “gcPBM binding intensity (ln)” value is 8.43 ± 0.18.

With “TATATACATAAAATTTGTACATATATATATATATAT [XGTACX_site3214]”, the “gcPBM binding intensity (ln)” value is 9.32 ± 0.27.

Regarding “AAAAAAAAAAAATGAGCACACATAAATAAAAACAAA [CACACA_site8447]”, the “gcPBM binding intensity (ln)” value amounted to 8.03 ± 0.19.

“ATATAAATAAATACAACACACATGTCATATCTAAAT [CACACA_site7533]”: the “gcPBM binding intensity (ln)” value amounted to 7.79 ± 0.42.

For “ATATTATTCTTATATTCACACAGTTTATATTTCCGT [CACACA_site5653]”, the “gcPBM binding intensity (ln)” value is 7.96 ± 0.47.

As to “AAATTACATACACGCGCACACACAAAAAAAAAAAAA [CACACA_site1335]”, the “gcPBM binding intensity (ln)” value worked out at 8.32 ± 0.43.

These data come from the supplement of paper PMC11417369.
